The source of these data is article PMC5963807.

These are yes or no findings as the source states them, for the method shown. For part of these data: In cells and extracts the contact can be indirect. Some results given as binding are weak or reduced against the parent protein; the word gives no strength. Tags and fused reporters may be left off the sequences shown.

The chains are these.
T1: TBSV p33 replication protein (split-ubiquitin bait) (Tomato bushy stunt virus) (UniProt P15962)
T1 sequence: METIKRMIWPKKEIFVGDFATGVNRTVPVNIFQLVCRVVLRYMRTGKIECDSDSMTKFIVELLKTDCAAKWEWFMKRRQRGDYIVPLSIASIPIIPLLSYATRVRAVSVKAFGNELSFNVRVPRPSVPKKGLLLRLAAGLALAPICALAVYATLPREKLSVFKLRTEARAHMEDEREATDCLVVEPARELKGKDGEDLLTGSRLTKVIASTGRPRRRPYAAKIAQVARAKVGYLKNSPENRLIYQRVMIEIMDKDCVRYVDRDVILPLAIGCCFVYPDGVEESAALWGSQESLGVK

T2: Ufe1p (split-ubiquitin bait) (yeast (S. cerevisiae)) (UniProt P41834)
T2 sequence: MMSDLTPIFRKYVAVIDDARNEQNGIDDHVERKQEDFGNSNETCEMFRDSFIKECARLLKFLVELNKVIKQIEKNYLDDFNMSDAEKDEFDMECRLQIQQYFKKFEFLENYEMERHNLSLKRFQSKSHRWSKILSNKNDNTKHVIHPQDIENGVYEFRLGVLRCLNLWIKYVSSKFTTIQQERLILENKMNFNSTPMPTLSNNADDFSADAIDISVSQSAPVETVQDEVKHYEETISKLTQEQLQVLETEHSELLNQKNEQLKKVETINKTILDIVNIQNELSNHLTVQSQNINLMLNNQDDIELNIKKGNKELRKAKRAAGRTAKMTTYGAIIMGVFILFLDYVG

T3: FLAG/His6-p33 (Tomato bushy stunt virus) (UniProt P15962)
T3 sequence: T1 sequence

T4: nYFP-p33 (in yeast) (Tomato bushy stunt virus) (UniProt P15962)
T4 sequence: T1 sequence

B1: Ufe1p, N-terminally tagged split-ubiquitin prey (protein, UniProt P41834 1-346)
chain: T2 sequence
B2: Dsl1p, C-terminally tagged split-ubiquitin prey (protein, UniProt P53847 1-754)
chain: MESLFPNKGEIIRELLKDPLILKNDSKRSNGSELELDSSDLLQREAILANELNILDNLKTFLNLIKEVKTNLNILELENCYYSLQSLRKKMRNNAAYLKQSFNFQQSISTYVDTLHLELVSTLYKILTNGFWKITENSIQFTPTVEWGKDKVHIEYDTFMDFVAQQYFPKGSLDNQAWFILDMTSADSQEQVRAKLNTIMKEYMNLSRIVSMIKNSIFISGKEISYENEKNILVFSKSSSHGQHCVSTVLTSFEAVCDFMLDGLAFRDRKTLSYELGPLFNTEFTKFVKNNASIILESLDSPLKNLVSVINNKLTRLVAKSEVTNWTHSGKEIQDLLMNKQLYYNLLLDKVLESHISEIRSIFEDPKKSWQNLEVVELTTSNTNTMSEKIGKNDSDVQNEKELHNAVSKDDDWNWEVEDDDADAWGDEIDVNIDDEEEKTNQEKEKEPEEEENAWDEAWAIDENIDDASLENGKEHLKAHDVGSLDKDHIEVTQLPKLFLAISQNFKSSFADSHVDEQYFAYKYNLLQTSYMAMCTANFSHNWCQLYVDMRYLIERDEKLYRIKELTRNLLETKLNMKYRIVCQLIRHQLTEFRENERNPSWDATIEKLLPYILKEIVRPLQKIRGEEGSRYLLSFLNFLYNDCVTKEILKWQIISEVNSENLGELVSLLVNNTDIQLLAKEPSYKKMREKFATMGKFLPLHLKEIMEMFYNGDFYLFATDELIQWIELLFADTPLRRNAIDDIYEIRGTALDD
B3: Erg9p, N-terminally tagged split-ubiquitin prey (enzyme, UniProt P29704 1-444)
chain: MGKLLQLALHPVEMKAALKLKFCRTPLFSIYDQSTSPYLLHCFELLNLTSRSFAAVIRELHPELRNCVTLFYLILRALDTIEDDMSIEHDLKIDLLRHFHEKLLLTKWSFDGNAPDVKDRAVLTDFESILIEFHKLKPEYQEVIKEITEKMGNGMADYILDENYNLNGLQTVHDYDVYCHYVAGLVGDGLTRLIVIAKFANESLYSNEQLYESMGLFLQKTNIIRDYNEDLVDGRSFWPKEIWSQYAPQLKDFMKPENEQLGLDCINHLVLNALSHVIDVLTYLAGIHEQSTFQFCAIPQVMAIATLALVFNNREVLHGNVKIRKGTTCYLILKSRTLRGCVEIFDYYLRDIKSKLAVQDPNFLKLNIQISKIEQFMEEMYQDKLPPNVKPNETPIFLKVKERSRYDDELVPTQQEEEYKFNMVLSIILSVLLGFYYIYTLHRA
B4: Use1p, split-ubiquitin prey (protein, UniProt P53146 1-245)
chain: MAETSNDPFLSYVLSSKQLTNLNRLRRKAVTKQLGSSDDNKVSEEFLRYQHTYQREAFEYLQTKHDAHKIMESQYEQYQSSSKTRRYSIDLDSVDAVDTESQTEYPNEEFIDRNEDSEAVMELRKRLLGKGQNKGLGYETTKSVDRQIEDQDTLQQDLIQDMSKLVGSLKQGAVAFQSALDEDKQVLGAAEIGIQVASQGLMDVSGKLRKYDKSKLSYLFYITVFIFMILGLVFTFIIIQLFPAL
B5: Sec20p, split-ubiquitin prey (protein, UniProt P28791 1-383)
chain: MVVTFLQDLEVLQDALLNNLQKLSAISRRKESGESKHDNKDSFAAIANEHNDEEEEIEFEDLVNIIESKVSDFESVLKCSIVEMTYKYPELKLQWEKSPRYDQCDKLHIVKLDKQMNEDIYAQLVEELDFVLQFVDWFYCYRLKVKEILRQHHKRDLAWNDEKRDRAIKFHAVDYDKLHQGTSSSSSLTSTSMEKASTREKLLSKTKQLTNNLVRGNQILQSGILQSDLNLDELRAQTNSLTQIDDKYTQFETVFKKTADLVKVLENASHQEKRDVYLSLGFLLCCVSWVLWRRIFKLPVKLGLWLLFKFFKGILVTLGLVKSYAGSSSSLQAPSLVLNAPILATTTTSSATSVEPFASVSAVSSIQRAVDEAVDRIVSHDEL
B6: 3xHA-tagged Ufe1p (protein, UniProt P41834 1-346)
chain: T2 sequence
B7: 3xHA-tagged Use1p (protein, UniProt P53146 1-245)
chain: B4 chain
B8: Ufe1-cYFP (protein, UniProt P41834 1-346)
chain: T2 sequence
B9: Scs2-cYFP (protein, UniProt P40075 1-244)
chain: MSAVEISPDVLVYKSPLTEQSTEYASISNNSDQTIAFKVKTTAPKFYCVRPNAAVVAPGETIQVQVIFLGLTEEPAADFKCRDKFLVITLPSPYDLNGKAVADVWSDLEAEFKQQAISKKIKVKYLISPDVHPAQNQNIQENKETVEPVVQDSEPKEVPAVVNEKEVPAEPETQPPVQVKKEEVPPVVQKTVPHENEKQTSNSTPAPQNQIKEAATVPAENESSSMGIFILVALLILVLGWFYR
B10: Osh6-cYFP (protein, UniProt Q02201 1-448)
chain: MGSKKLTVGSDSHRLSKSSFSSNKSSHSATKDQPIDTDDIDEDDESGHNIILNIISQLRPGCDLTRITLPTFILEKKSMLERVTNQLQFPEFLLQAHSEKDPLKRFLYVMKWYLAGWHIAPKAVKKPLNPVLGEYFTAYWDLPNKQQAYYISEQTSHHPPECAYFYMIPESSIRVDGVVIPKSRFLGNSSAAMMDGSTVLQFLDIKDGNGKPEKYVLTQPNVYVRGILFGKMRIELGDHMIIKSPNFQADIEFKTKGYVFGTYDAIEGTVKDYDGNAYYEISGKWNDVMYLKDLKQPRSSPKVFLDTHKESPLRPKVRPLSEQGEYESRKLWKKVTDALAVRNHPVATEEKFQIEDHQRQLAKKRIEDGVEFHPKLFRRSKPGEDLDYCIYKNIPVDEDPEKQIRSILQIAPILPGQQFTDKFFIPAFEKIKSQKKMIENEKQNPAKQ

The first test concerns the target T1, TBSV p33 replication protein (split-ubiquitin bait) (Tomato bushy stunt virus). As to the kind of experiment: two-hybrid; split-ubiquitin-based membrane yeast two-hybrid assay (MYTH); bait co-expressed with NubG-tagged prey in yeast; empty prey vector (NubG) as negative control.
Turning to B1, the binding entry is recorded as “binds”.
Consider B2, for which the binding entry is recorded as “binds weakly”.
For B3, the binding entry is “no binding”.
On the same count and under the same terms, next, B4: “binds”; B5: “binds weakly”.

A further test concerns the target T2, Ufe1p (split-ubiquitin bait) (yeast (S. cerevisiae)). The description is as above.
On to B3, for which the binding result is “binds”.
Turning to B4, the binding entry is given as “binds”.

The next test has as its target T3, FLAG/His6-p33 (Tomato bushy stunt virus). As to the kind of experiment: co-IP; FLAG-p33 immobilized on a FLAG column from the detergent-solubilized membrane fraction of yeast; eluted proteins blotted with anti-HA; His6-p33 extract as negative control.
Turning to B6, the binding entry is on record as “binds”.
For the molecule B7, the binding entry is on record as “binds”.

The next test has as its target T4, nYFP-p33 (in yeast) (Tomato bushy stunt virus). Nature of the test: split reporter; BiFC in yeast, nYFP-p33 with cYFP-tagged host protein, confocal microscopy; for Scs2 and Osh6 also with co-expressed dominant-negative Ufe1ΔTM (signal greatly reduced).
For the molecule B8, the binding result is reported as “binds”.
B9: the binding result is “binds”.
The same measure, in the same setting: next, B10: “binds”.
